Source: the supplement of paper PMC3334620
Whole data set: some 33,000 sequences, median “E-score (-0.5 to 0.5)” near -0.04, cut for the highest 2% near 0.36. This is one part of the list.

target: T1, Hmlalpha2 (UniProt P0CY09); assay: PBM E-score (8-mer binding enrichment) (E-score (-0.5 to 0.5)); higher = stronger / more preferred TF binding; most listed sequences are background and not binding sites; conditions: protein concentration: 200 nM; construct: GST-full length
T1 sequence: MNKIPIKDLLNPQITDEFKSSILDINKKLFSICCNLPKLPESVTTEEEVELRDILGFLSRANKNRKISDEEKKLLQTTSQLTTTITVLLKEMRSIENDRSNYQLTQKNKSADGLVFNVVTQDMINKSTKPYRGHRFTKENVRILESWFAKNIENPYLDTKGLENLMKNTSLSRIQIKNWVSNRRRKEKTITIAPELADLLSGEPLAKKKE
Summary of the method: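 Universal all-10-mer Agilent arrays, double-stranded by primer extension on fresh or once-stripped slides, were probed with about 100-200 nM GST-tagged yeast transcription factors made by PURExpress. Fluorescent anti-GST detected bound protein, and masliner normalised the scans. E-scores from the Universal PBM Analysis Suite were given to each ungapped eight-base word pooled with its reverse complement.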

Row | Sequence | PBM E-score
1 | AACTTACG | 0.295
2 | TTAATCAA | 0.266
3 | CCGAGACC | -0.141
4 | GTACTATA | 0.178
5 | CTTGTTCC | -0.0361
6 | CATTGTAG | 0.104
7 | GAACACTA | 0.0328
8 | ATTGTTTA | 0.268
9 | ACGACCTC | -0.0124
10 | AGGTATTG | 0.131
11 | ATATACAT | 0.435
12 | CCTCCAGC | -0.4
13 | GAAACTAC | 0.174
14 | CGTGTCAG | 0.273
15 | AAATTCCT | -0.135
16 | CTGTGAAA | 0.153
17 | ATAGTTCG | 0.0279
18 | ACGCACGA | 0.277
19 | CAGGCTAG | -0.333
20 | ATAGTAAC | 0.171
21 | GGACGCAA | -0.265
22 | ATGCGTCC | -0.158
23 | ACAGTCAA | 0.0515
24 | TCAAAGCA | 0.0358
25 | AACACAAA | 0.261

Row | Sequence | PBM E-score
26 | CATTGTCG | 0.0807
27 | ACGTTACT | 0.174
28 | AGAGTAAA | 0.17
29 | GCGAGCTA | -0.0464
30 | CGTGCCCC | -0.0767
31 | CGCTACGA | -0.117
32 | CTGTGTGC | -0.0664
33 | CTCGAACC | -0.106
34 | CACAGGAG | 0.0451
35 | TAACAGTA | 0.172
36 | AGGCCCAG | -0.212
37 | GATAGCCA | -0.212
38 | CATGCTAC | 0.101
39 | CCCGACCC | -0.224
40 | ACTATATA | 0.146
41 | ACCGACAG | -0.252
42 | ACCGAGTC | -0.158
43 | CTGATAAA | 0.056
44 | AGTTGAGA | -0.13
45 | GCTTGCTA | -0.165
46 | CGTCAGTC | -0.109
47 | GGCGCCAA | -0.0737
48 | CGCACACA | 0.0898
49 | AAGTTTCA | 0.0274
50 | GGCGGCCA | -0.144

Row | Sequence | PBM E-score
51 | ATTTACGC | 0.347
52 | ATATTCGG | -0.0737
53 | TATACTAA | 0.139
54 | ACGTGCCA | 0.103
55 | ATCGTCTG | -0.165
56 | CCCGCGGG | -0.0779
57 | GGACCGTA | -0.145
58 | GCACAGCA | 0.128
59 | AACAACGT | 0.227
60 | GCACAGAA | 0.0198
61 | ACTGGGAC | -0.0158
62 | AGACGATC | -0.29
63 | CTGCGTTC | 0.0961
64 | CATACCAA | 0.141
65 | CCGGAGTA | 0.00533
66 | AACCTCCT | -0.0564
67 | GACCTGGA | -0.163
68 | AAAGAATG | 0.204
69 | CAATCCGA | 0.0675
70 | AGTGGCCC | -0.135
71 | GCCCCACC | -0.336
72 | AGCCTAAC | 0.0259
73 | AGGTCATA | -0.0632
74 | CAGTCGAG | -0.188
75 | GGACTAAC | -0.0725

Row | Sequence | PBM E-score
76 | ACATAAAT | 0.322
77 | CCGAGCTC | -0.0675
78 | AGCAACAT | 0.228
79 | CCAGTGCA | -0.0365
80 | AGAAGATC | -0.212
81 | CCCCGGGA | -0.242
82 | ACTACCCA | -0.0883
83 | AAACCACC | -0.166
84 | CCTGCGGC | -0.341
85 | GGCCCAGA | -0.435
86 | AAGCCGAT | -0.0635
87 | TTACAAAA | 0.266
88 | ATAATCAC | 0.16
89 | CCTCGTCC | -0.266
90 | CCTCTGAA | -0.366
91 | ATATGTTC | 0.198
92 | GGTATGAC | -0.156
93 | CCGTGCTC | 0.00271
94 | TGAGATAA | -0.0523
95 | ATCCAAGA | -0.0469
96 | CTCTGATC | -0.139
97 | CATGCTGG | 0.105
98 | ACTTCGAC | 0.0911
99 | CGCCAAAA | -0.133
100 | ACGACAGA | -0.112

Row | Sequence | PBM E-score
101 | GACGAGCA | -0.127
102 | ACTCCGCG | -0.096
103 | GTGGAATA | 0.173
104 | ACCGGCGC | -0.125
105 | ATGTTGTG | 0.362
106 | AGGAACTG | -0.214
107 | CATTCTTA | -0.0599
108 | ACCGCCAA | 0.0106
109 | TATTCCAA | 0.114
110 | GTGGCGTA | -0.0203
111 | TCGACCAA | -0.0149
112 | GCGTAGAC | 0.116
113 | CTGTTACC | -0.0695
114 | CTACTTGA | 0.107
115 | ATGTGGAC | 0.0672
116 | GCTCTAGA | -0.349
117 | ATGGACGA | 0.00177
118 | GGCAGCCA | -0.281
119 | CCTTCTTA | -0.0419
120 | CAGATCCC | -0.131
121 | ATAAGATC | -0.0162
122 | CACAACCG | 0.21
123 | GGACCGGA | -0.311
124 | AGGACCGG | -0.398
125 | GAATATCA | -0.187

Row | Sequence | PBM E-score
126 | CTGGACGC | -0.0994
127 | CGTGAAGA | -0.0345
128 | ACCAAAAC | 0.0544
129 | ATGTCTCC | 0.104
130 | ACCGGGAG | -0.23
131 | TAACACTA | 0.316
132 | CGCTTCTA | 0.0654
133 | GCACACTA | 0.00254
134 | TGCTAGCA | 0.16
135 | CCCGAAGG | -0.199
136 | AAGTGCGA | -0.185
137 | CCGCCTTC | -0.351
138 | GCGTTTAA | 0.29
139 | CCACTGTC | -0.304
140 | AGTTAAAG | 0.208
141 | ACCATCTG | -0.18
142 | CCTTCCTA | -0.271
143 | CGCGCGAA | 0.0551
144 | CCAGGAAA | -0.0122
145 | AGAACGCG | 0.242
146 | AAGCGAAA | -0.0908
147 | ACATTCCG | 0.0661
148 | GACGGCGA | -0.235
149 | AACGAAGT | 0.0804
150 | AACACATG | 0.363

Row | Sequence | PBM E-score
151 | CTCAGCAA | 0.107
152 | CAGGGCTA | -0.0474
153 | AGTCTATA | 0.028
154 | AATTAAAG | -0.0351
155 | ACCGTGGC | -0.134
156 | AATCAAAG | -0.149
157 | ATGATGAC | -0.101
158 | TCATTACA | 0.439
159 | CTAAACTC | -0.0225
160 | AGATTACT | 0.141
161 | AGAAGACG | -0.0512
162 | GAACAACA | 0.239
163 | CACTCAAA | 0.00366
164 | CGGGCAGA | 0.0372
165 | CAGTGCGG | -0.125
166 | CTTTCTAC | 0.245
167 | ATATCAGC | -0.119
168 | GGGCAATA | -0.237
169 | TGAATGAA | 0.0279
170 | CGACTTTA | 0.134
171 | AAAGACGG | -0.227
172 | AACGTGTA | 0.455
173 | GCGGTGTA | 0.222
174 | CTAGAAAG | -0.0836
175 | AGATACCT | -0.163

Row | Sequence | PBM E-score
176 | AGCTCAGA | -0.0902
177 | CAGGTTCC | -0.138
178 | GGTCTTAC | 0.0512
179 | ACTTGGCC | -0.124
180 | CACCCCGC | -0.109
181 | ATACAGCC | -0.0205
182 | AATATGGA | 0.119
183 | ACGCACCT | 0.0854
184 | CCATACCA | -0.0331
185 | ATGGACCG | -0.189
186 | CTTGTGAC | -0.0579
187 | ATTGAGGC | -0.0568
188 | CATGGTTC | 0.162
189 | CATCAATC | 0.0514
190 | GAGGAACC | -0.191
191 | AGTGTGTG | 0.127
192 | CGCCTTCA | -0.271
193 | AACTGGAA | -0.0939
194 | CCGCTTGC | -0.212
195 | GGAAGGTA | -0.132
196 | GAGTAACC | -0.00081
197 | GAGGGGCA | -0.203
198 | CTGTATGC | 0.00068
199 | GAAAGATC | -0.206
200 | GGGGGGAA | -0.432

Row | Sequence | PBM E-score
201 | AGTGCTAT | -0.151
202 | CAATGAGG | -0.137
203 | CAATAGGC | -0.157
204 | AAGGCGCA | -0.00403
205 | AGAGAAAC | 0.106
206 | CCAATGCA | -0.0576
207 | GCGAGAAA | -0.0173
208 | GTGACTGA | 0.111
209 | AACCGGCC | -0.197
210 | GTAAACGA | 0.283
211 | AGAACCCC | -0.313
212 | TAACGTCA | 0.137
213 | CTGGGGCA | -0.324
214 | GGGATTCA | -0.145
215 | AACTTCAT | 0.0469
216 | TGTATGAA | 0.181
217 | CCTGTTCG | 0.0463
218 | CTCGTATA | 0.114
219 | AAAAGTAA | 0.233
